Numbering of substitutions follows the chain as printed; changes in the protein carry UniProt numbers. This is one part of the list.
T1: RBFOX1 RRM (Homo sapiens, UniProt Q9NWB1 109-208)
T1 sequence: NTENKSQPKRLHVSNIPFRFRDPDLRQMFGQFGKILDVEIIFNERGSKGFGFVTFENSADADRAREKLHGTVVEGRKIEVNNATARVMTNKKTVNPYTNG

B1: CCUACAU (DNA:RNA)
RNA: GGGAGACCGGAAUUCAGAUUGUCCCCUACAUUUAAAUCCCGUCGUAGCCACCA
DNA 1: CAATCTGAATTCCGGTCTCCC
DNA 2: TGGTGGCTACGACGGGATT
B2: AUUACCC (DNA:RNA)
RNA: B1 RNA with C25A, C26U, A30C, U31C
DNA 1: CAATCTGAATTCCGGTCTCCC
DNA 2: TGGTGGCTACGACGGGATT
B3: AAGCGGG (DNA:RNA)
RNA: GGGAGACCGGAAUUCAGAUUGUCCAAGCGGGUUAAAUCCCGUCGUAGCCACCA
DNA 1: CAATCTGAATTCCGGTCTCCC
DNA 2: TGGTGGCTACGACGGGATT
B4: GUUCUAC (DNA:RNA)
RNA: B1 RNA with C25G, C26U, A28C, C29U, U31C
DNA 1: CAATCTGAATTCCGGTCTCCC
DNA 2: TGGTGGCTACGACGGGATT
B5: UCCUCAU (DNA:RNA)
RNA: B1 RNA with C25U, U27C, A28U
DNA 1: CAATCTGAATTCCGGTCTCCC
DNA 2: TGGTGGCTACGACGGGATT
B6: GUUCUUA (DNA:RNA)
RNA: B3 RNA with A25G, A26U, G27U, G29U, G30U, G31A
DNA 1: CAATCTGAATTCCGGTCTCCC
DNA 2: TGGTGGCTACGACGGGATT
B7: UUUUCCA (DNA:RNA)
RNA: B1 RNA with C25U, C26U, A28U, A30C, U31A
DNA 1: CAATCTGAATTCCGGTCTCCC
DNA 2: TGGTGGCTACGACGGGATT
B8: GAGGUCU (DNA:RNA)
RNA: B3 RNA with A25G, C28G, G29U, G30C, G31U
DNA 1: CAATCTGAATTCCGGTCTCCC
DNA 2: TGGTGGCTACGACGGGATT
B9: CAUCGCA (DNA:RNA)
RNA: B3 RNA with A25C, G27U, G30C, G31A
DNA 1: CAATCTGAATTCCGGTCTCCC
DNA 2: TGGTGGCTACGACGGGATT

Molecular target: T1, RBFOX1 RRM
Test: EMSA; HiTS-Eq, 1 nM pool, 10 min; buffer printed only for the single-RNA assays: 10 mM Tris pH 7.5, 150 mM NaCl, 3.4 mM EDTA, 0.001% NP-40, 30 C
Settings: tags: His6 N-terminal (pET28a); label: 5' 32P
Procedure, shortened: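 Purified RbFox RRM (wild type or mutant) was equilibrated for 10 min in 50 µL with 1 nM of a 5′-radiolabelled pool of RNA with 7 randomized nucleotides, its flanks annealed to DNA oligonucleotides, across increasing protein concentrations. Free RNA was separated by 8% native PAGE, excised, reverse-transcribed, PCR-barcoded and sequenced on an Illumina HiSeq 2500. Relative association constants came from read-count changes of each variant against the control reaction, normalised to the cognate motif.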

Row | Binder | binding signal
1 | B1 | 0.00644 KA relative to UGCAUGU
2 | B2 | 0.00021 KA relative to UGCAUGU
3 | B3 | 0.00843 KA relative to UGCAUGU
4 | B4 | 0.00913 KA relative to UGCAUGU
5 | B5 | 0.00357 KA relative to UGCAUGU
6 | B6 | 0.00747 KA relative to UGCAUGU
7 | B7 | 0.00889 KA relative to UGCAUGU
8 | B8 | 0.0222 KA relative to UGCAUGU
9 | B9 | 0.00633 KA relative to UGCAUGU
